According to the antibiotic and cytotoxicity screens of Wong et al. (2023):
The list shows a part of the results.

Assays:
HSkMC = human skeletal muscle cells; assay: cytotoxicity call (relative viability < 0.9); conditions: 10 µM
HepG2 = assay: cytotoxicity call (relative viability < 0.9); conditions: 10 µM
S. aureus RN4220 = assay: growth inhibition call (relative growth <= 0.2); conditions: 50 µM

SMILES | cytotoxicity call (HSkMC) | cytotoxicity call (HepG2) | growth inhibition call (S. aureus RN4220)
COC(=O)c1ccc(O)c(/C=N/N(CCO)C2=NS(=O)(=O)c3ccccc32)c1 | inactive | inactive | inactive
C[C@H]1CN([C@@H](C)CO)C(=O)Cc2cc(NC(=O)c3ccncc3)ccc2O[C@@H]1CN(C)S(=O)(=O)c1ccc(Cl)cc1 | inactive | inactive | inactive
COc1cccc(NC(=O)N2C[C@H](O)COC[C@H]3O[C@@H](CC(=O)NC4Cc5ccccc5C4)CC[C@@H]32)c1 | inactive | inactive | inactive
C[C@@H]1CN([C@H](C)CO)C(=O)c2cccc(NS(=O)(=O)c3ccc(F)cc3)c2O[C@@H]1CN(C)S(=O)(=O)c1ccc(F)cc1 | inactive | inactive | inactive
Cc1noc(C)c1NC(=O)Nc1cccc2c1O[C@H](CN(C)Cc1ccc(Oc3ccccc3)cc1)[C@H](C)CN([C@@H](C)CO)C2=O | inactive | inactive | inactive
C[C@H](CO)N1C[C@H](C)[C@@H](CN(C)Cc2ccc(Cl)c(Cl)c2)Oc2c(NC(=O)Nc3ccccc3)cccc2C1=O | active | inactive | inactive
CC(C)CC#Cc1ccc2c(c1)O[C@H](CN(C)C(=O)c1cccnc1)[C@H](C)CN([C@H](C)CO)S2(=O)=O | inactive | inactive | inactive
CC1(C)OC2CC3C4CCC5=CC(=O)CCC5(C)C4(F)C(O)CC3(C)C2(C(=O)CCl)O1 (stereo not drawn) | inactive | inactive | inactive
C[C@@H]1CCCCO[C@H](CN(C)Cc2ccccc2)[C@H](C)CN([C@H](C)CO)C(=O)c2cc(NC(=O)c3ccncc3)ccc2O1 | inactive | inactive | inactive
Cc1noc(C)c1NC(=O)Nc1ccc2c(c1)C(=O)N([C@@H](C)CO)C[C@@H](C)[C@H](CN(C)C(=O)NC1CCCCC1)OCCCC[C@H](C)O2 | inactive | inactive | inactive
C[C@@H]1CN([C@H](C)CO)C(=O)c2cc(NC(=O)Cc3ccccc3)ccc2O[C@@H](C)CCCCO[C@H]1CN(C)S(=O)(=O)c1cccs1 | inactive | inactive | inactive
COc1ccc([C@@H]2CC(=O)c3c(O)cc(O[C@@H]4O[C@H](CO[C@@H]5O[C@@H](C)[C@H](O)[C@@H](O)[C@H]5O)[C@@H](O[C@H]5O[C@H](CO)[C@@H](O)[C@H](O)[C@H]5O)[C@H](O)[C@H]4O)cc3O2)cc1O | inactive | inactive | inactive
CCCNC(=O)N[C@H]1C=C[C@@H](CC(=O)N2CCN(C)CC2)O[C@H]1CO | inactive | inactive | inactive
C[C@@H]1CN([C@@H](C)CO)C(=O)c2cc(-c3cccnc3)cnc2O[C@@H]1CN(C)Cc1ccc(-c2ccccc2)cc1 | inactive | inactive | inactive
CC(C)CNC(=O)[C@@]1(c2ccc([N+](=O)[O-])cc2)CC(=O)N(CC23CC4CC(CC(C4)C2)C3)[C@@H]1c1ccc(CO)cc1I | inactive | inactive | inactive
O=C(C[C@H]1CC=CCC[C@H](Cc2ccc(F)cc2)C(=O)OC[C@H](Cc2ccccc2)NC1=O)NCCO | inactive | inactive | inactive
C[C@@H]1CCCCO[C@@H](CN(C)Cc2ccccc2)[C@@H](C)CN([C@@H](C)CO)C(=O)c2cc(NC(=O)NC3CCCCC3)ccc2O1 | inactive | active | inactive
C[C@H](CO)N1C[C@H](C)[C@@H](CN(C)C(=O)Nc2cccc3ccccc23)OCCCC[C@H](C)Oc2ccc(NC(=O)c3ccccc3)cc2C1=O | inactive | inactive | inactive
CCC(=O)Nn1c(C)nnc1C | inactive | inactive | inactive

SMILES | cytotoxicity call (HSkMC) | cytotoxicity call (HepG2) | growth inhibition call (S. aureus RN4220)
C[C@@H]1CN([C@@H](C)CO)C(=O)c2cc(NC(=O)C3CC3)ccc2O[C@H]1CN(C)S(=O)(=O)c1cccs1 | inactive | inactive | inactive
C[C@H](CO)N1C[C@H](C)[C@@H](CN(C)Cc2ccc(C(=O)O)cc2)Oc2ccc(NC(=O)C3CC3)cc2CC1=O | inactive | inactive | inactive
C[C@H](CO)N1C[C@H](C)[C@@H](CN(C)S(=O)(=O)c2cccs2)Oc2ccc(NS(=O)(=O)c3cccs3)cc2C1=O | inactive | inactive | inactive
Cc1noc(C)c1NC(=O)Nc1ccc2c(c1)CC(=O)N([C@@H](C)CO)C[C@H](C)[C@H](CN(C)Cc1ccc(C(F)(F)F)cc1)O2 | inactive | inactive | inactive
C[C@H](CO)N1C[C@H](C)[C@@H](CN(C)C(=O)Nc2ccc3c(c2)OCO3)OCCCC[C@H](C)Oc2ccc(NC(=O)NC3CCCCC3)cc2C1=O | inactive | inactive | inactive
COCC(=O)N1CC(C)(C)c2cc(-c3csc(NC(=O)c4ccc(F)c(OC(F)(F)F)c4)n3)ccc21 | inactive | inactive | inactive
C[C@@H]1CN([C@@H](C)CO)C(=O)c2cc(NC(=O)Nc3ccc(C(F)(F)F)cc3)ccc2O[C@@H](C)CCCCO[C@@H]1CN(C)S(=O)(=O)c1cccs1 | inactive | inactive | inactive
COCC#Cc1ccc2c(c1)O[C@H](CN(C)Cc1ccccc1F)[C@H](C)CN([C@H](C)CO)S2(=O)=O | inactive | inactive | inactive
Cc1cc(=O)oc2c(O)c(O)ccc12 | inactive | active | inactive
COC(=O)c1ccc(CNC(=N)N)cc1 | inactive | inactive | inactive
C[C@H](CO)N1C[C@H](C)[C@H](CN(C)Cc2ccc(C(=O)Nc3ccccc3N)cc2)Oc2c(NS(=O)(=O)c3ccc(Cl)cc3)cccc2C1=O | inactive | active | inactive
CC(C)OC(=O)[C@H](C)N[P@](=O)(OC[C@H]1O[C@@H](n2ccc(=O)[nH]c2=O)[C@](C)(Cl)[C@@H]1O)Oc1ccccc1 | inactive | inactive | inactive
C[C@H](CO)N1C[C@H](C)[C@@H](CN(C)C(=O)Cc2ccncc2)Oc2cc(C#CC3CCCC3)ccc2S1(=O)=O | inactive | inactive | inactive
O=C(/C=C/c1ccc(O)c(O)c1)O[C@@H]1O[C@H](CO)[C@@H](O)[C@H](O)[C@H]1O | inactive | inactive | inactive
Cl.N=c1ccn2c(n1)OC1C(O)C(CO)OC12 (stereo not drawn) | inactive | inactive | inactive
FC(F)(F)c1ccc(CSc2c[nH]c3ccccc23)cc1 | inactive | inactive | active
O=C(CN1CCOCC1)NCC[C@@H]1CC[C@@H](NC(=O)c2ccccc2F)[C@@H](CO)O1 | active | inactive | inactive
C[C@H](CO)N1C[C@H](C)[C@@H](CN(C)C(=O)Nc2ccc(C(F)(F)F)cc2)Oc2ccc(NC(=O)Cc3cn(C)c4ccccc34)cc2C1=O | inactive | inactive | inactive
C[C@@H]1CN([C@H](C)CO)C(=O)c2cc(NC(=O)C3CC3)ccc2O[C@H]1CN(C)S(=O)(=O)c1cccs1 | inactive | inactive | inactive

SMILES | cytotoxicity call (HSkMC) | cytotoxicity call (HepG2) | growth inhibition call (S. aureus RN4220)
C[C@@H]1CN([C@@H](C)CO)C(=O)c2cccc(NC(=O)c3ccc(-c4nccs4)cc3)c2O[C@@H]1CN(C)Cc1ccc(-c2ccccc2)cc1 | inactive | active | inactive
Cc1ccc(S(=O)(=O)N(C)C[C@H]2Oc3ccc(NS(=O)(=O)c4ccccc4)cc3CC(=O)N([C@H](C)CO)C[C@@H]2C)cc1 | inactive | inactive | inactive
COc1ccc(S(=O)(=O)Nc2ccc3c(c2)C(=O)N([C@@H](C)CO)C[C@@H](C)[C@@H](CN(C)C(=O)c2ccccc2)OCCCC[C@H](C)O3)cc1 | inactive | inactive | inactive
COC(=O)C[C@H]1CC[C@@H](N)[C@@H](CO)O1 | inactive | inactive | inactive
C[C@H]1CN([C@@H](C)CO)C(=O)Cc2cc(NS(=O)(=O)c3cn(C)cn3)ccc2O[C@@H]1CN(C)CC1CC1 | inactive | inactive | inactive
C[C@@H]1CN([C@@H](C)CO)C(=O)c2cc(NC(=O)Nc3ccc(C(F)(F)F)cc3)ccc2O[C@@H](C)CCCCO[C@@H]1CN(C)C(=O)Nc1ccc2c(c1)OCO2 | inactive | inactive | inactive
O=C(/C=C/c1cccc(-c2cn(-c3cccc(C(=O)N4CCC5(CC4)C(=O)NCN5c4ccccc4)c3)nn2)c1)NO | inactive | inactive | inactive
C[C@H](CO)N1C[C@H](C)[C@@H](CN(C)CC2CC2)Oc2ccc(NC(=O)Cn3cnnn3)cc2CC1=O | inactive | inactive | inactive
CCN(CC)S(=O)(=O)c1ccc(CN2C(=O)[C@]3(CC(=O)N(CCOC)C3=O)c3cc(F)ccc32)cc1 | inactive | inactive | inactive
C[C@@H]1CN([C@H](C)CO)C(=O)c2cc(C#CCN(C)C)cnc2O[C@@H]1CN(C)S(=O)(=O)c1cn(C)cn1 | inactive | inactive | inactive
COCC#Cc1ccc2c(c1)O[C@@H](CN(C)C(=O)C1CCOCC1)[C@H](C)CN([C@@H](C)CO)S2(=O)=O | inactive | inactive | inactive
Cn1cc(CN2C[C@H]3CCCO[C@H]3[C@H](NS(C)(=O)=O)C2)cn1 | inactive | inactive | inactive
CCCn1c(=O)[nH]c(=O)c2[nH]cnc21 | inactive | inactive | inactive
NCC1CCN(S(=O)(=O)C2CC2)CC1 | inactive | inactive | inactive
C[C@@H]1CN([C@@H](C)CO)C(=O)c2cc(NC(=O)NC3CCCCC3)ccc2O[C@@H](C)CCCCO[C@@H]1CN(C)Cc1ccc(C(F)(F)F)cc1 | inactive | inactive | inactive
C[C@@H]1CCCCO[C@@H](CN(C)Cc2ccc(C(=O)O)cc2)[C@@H](C)CN([C@H](C)CO)C(=O)c2cc(NC(=O)Nc3ccc(C(F)(F)F)cc3)ccc2O1 | inactive | inactive | inactive
CC(C)NC(=O)N(C)C[C@H]1OCCCC[C@H](C)Oc2ccc(NC(=O)Nc3cccc4ccccc34)cc2C(=O)N([C@H](C)CO)C[C@H]1C | inactive | inactive | inactive
O=C(CN1CCOCC1)N[C@@H]1CC[C@H](CCNC(=O)C2CCCCC2)O[C@@H]1CO | inactive | inactive | inactive
